In PubChem BioAssay AID624417 (National Center for Advancing Translational Sciences (NCATS), 2012):
The whole screen tested about 410,000 compounds, of which about 6,400 (1.6%) were called active. Inconclusive means that the source gave no clear call. Such entries were picked first, then a sample of the others. The call rests on the fitted dose curve; in most records, active means well fitted inhibition curve with a large enough effect; inconclusive means small, poorly fitted or top-dose-only effect; inactive means no such curve, though single readings can be large or run the other way. No potency is given beside an inconclusive call; the fits are too rough.

biological target: Glucagon-like peptide 1 receptor (Homo sapiens) (UniProt P43220); test: qHTS of GLP-1 Receptor Inverse Agonists (Inhibition Mode); details: HEK293 GLP-1R CRE-luciferase, luminescence, 24 h, GLP-1R form is constitutively active; activity change, negative = inhibition: at 38.3 µM (top of the series) unless noted; further: nearly all actives have a fitted effect of over 55% in size
In short: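 Cells are plated, allowed 12 hours at 37 deg C, then treated with compounds for 24 hr before luciferase detection reagent is added and luminescence is read after 12 min at room temperature. The HEK293 line carries constitutively active GLP-1R with a cAMP-responsive reporter.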
On the % scale 0 is the no-effect control and ±100 the full control effect; potency means the concentration at half of the fitted maximal effect; tags describe the fitted curve by direction and shape.

Sequence of UniProt P43220 (P43220 whole entry, looked up): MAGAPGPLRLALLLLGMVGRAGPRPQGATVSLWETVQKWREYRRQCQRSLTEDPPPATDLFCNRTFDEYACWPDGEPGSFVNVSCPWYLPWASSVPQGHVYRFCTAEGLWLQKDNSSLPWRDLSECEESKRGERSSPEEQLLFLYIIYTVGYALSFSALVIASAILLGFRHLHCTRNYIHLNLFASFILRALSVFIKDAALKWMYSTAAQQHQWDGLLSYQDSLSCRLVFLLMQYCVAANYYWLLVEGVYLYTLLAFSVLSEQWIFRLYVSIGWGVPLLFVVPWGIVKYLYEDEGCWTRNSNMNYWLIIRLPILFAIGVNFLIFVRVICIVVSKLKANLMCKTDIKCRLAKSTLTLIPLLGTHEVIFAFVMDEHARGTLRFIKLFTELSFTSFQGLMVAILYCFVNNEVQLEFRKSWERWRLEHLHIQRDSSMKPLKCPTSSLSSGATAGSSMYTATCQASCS

SMILES | Potency | activity change, negative = inhibition
CC1(C(=O)Nc2ccccc2)Cc2c(-c3cccc(C(F)(F)F)c3)ccnc2O1 (configuration not stated) | inconclusive [inhibitor, partial curve, poor fit] | 
COc1ccc2ccc(O)c(CN(C)CC(=O)Nc3ccccc3C(F)(F)F)c2c1 | inconclusive [inhibitor, single point] | 
CCOc1ccc(-c2cc(C(=O)NCCCn3ccnc3)c3cc(Br)ccc3n2)cc1 | inconclusive [inhibitor, single point] | 
CCCN(CCC)CCCNC(=O)C1CCC(CNS(=O)(=O)c2ccc(NC(C)=O)cc2)CC1 (configuration not stated) |  | inactive: 9.65%
COc1cccc([C@@H]2CC=C(C(=O)O)[C@H](c3cccc(Cl)c3)N2S(=O)(=O)c2ccc(C)cc2)c1 | inconclusive [inhibitor, partial curve, poor fit] | 
O=C(Nc1cccc(NC(=O)N2CCN(c3ccccc3)CC2)c1)N1CCN(c2ccccc2)CC1 | inconclusive [inhibitor, partial curve, poor fit] | 
CC(C)(C)NC(=O)C(c1ccc(C#N)cc1)n1c(=O)c(-c2cc3ccccc3[nH]2)nc2ccccc21 (configuration not stated) | inconclusive [inhibitor, partial curve, poor fit] | 
COc1ccc(NC(=O)Cn2c(CCC(=O)O)ccc2-c2ccccc2)cc1Cl |  | inactive: 2.88%
CCOc1c(Cl)cc(C(=O)Nc2ccccc2-c2ccccc2)cc1Cl | active: 8.91 µM | 
Cc1cccc(-c2n[nH]c(=S)n2C)c1 |  | inactive: -7.5% [at 0.307 µM]
COc1ccc(Cl)cc1NC(=O)[C@@H]1CCCN1C(=O)c1cccs1 | inconclusive [inhibitor, single point] | 
O=C(CCN1CCC(c2ccccc2)C1)c1ccc2c(c1)OCCO2 (configuration not stated) |  | inactive: 5.21%
CCC(=O)N1CCN(c2ccc(NC(=O)COc3ccccc3[N+](=O)[O-])cc2)CC1 | inconclusive [inhibitor, single point] | 
COc1ccc(-c2nnc(SCC(=O)NCC3CCCO3)o2)cc1 (configuration not stated) |  | inactive: 19.6%
Cc1ccc(-c2nc3ccccc3c(=O)n2CCN2CCOCC2)cc1 | inconclusive [inhibitor, single point] | 
CCOc1ccc(CNS(=O)(=O)c2ccc3[nH]c4c(c3c2)CCCC4)cc1OC | inconclusive [inhibitor, single point] | 
COc1cccc2sc(N(CCCN(C)C)C(=O)CCS(=O)(=O)c3ccccc3)nc12 | inconclusive [inhibitor, partial curve, poor fit] | 
COc1ccc(CCN2CC(C(=O)NC3CCOCC3)CCC2=O)cc1 (configuration not stated) |  | inactive: 8.51%
CC(C)(C)NC(=O)c1cccc2c1OC(C)(C)C2 | inconclusive [inhibitor, partial curve, poor fit] | 
Cc1ccc(OC(=O)c2ccccc2C(=O)OCC(F)(F)C(F)F)cc1 | inconclusive [inhibitor, partial curve, poor fit] | 
Cc1ccc(S(=O)(=O)Nc2ccc(C(=O)Nc3ccncc3)cc2)cc1 | inconclusive [inhibitor, full curve, poor fit] | 

SMILES | Potency | activity change, negative = inhibition
CCOc1ccc(S(=O)(=O)Nc2cc(C)ccn2)c2ccccc12 |  | inactive: 44.5%
CCOC(=O)C1=C(c2ccccc2)NC(N)=NC1c1ccc(OCc2ccc(C(=O)OC)cc2)cc1 (configuration not stated) | active: 8.91 µM | 
COc1ccc(-n2cc(CNC3CCN(C)CC3)c(-c3cccc(F)c3)n2)cc1 | inconclusive [inhibitor, partial curve, poor fit] | 
O=C(Nc1nc(-c2cccs2)cs1)c1cccc(S(=O)(=O)N2CCCCC2)c1 | inconclusive [inhibitor, partial curve, poor fit] | 
COc1cccc(NC(=S)NC2CC3CCCC(C2)N3C2CCCC2)c1 (configuration not stated) | inconclusive [inhibitor, single point] | 
COc1ccc(C)c2sc(N(CCCN(C)C)C(=O)c3ccc4c(c3)OCCO4)nc12 | inconclusive [inhibitor, full curve, poor fit] | 
Cc1ccccc1OCC(=O)Nc1ccccc1N1CCC(C)CC1 | inconclusive [inhibitor, partial curve, poor fit] | 
Cc1[nH]nc2c1-c1nc3ccccc3nc1C(C)(C)C2 |  | inactive: 2.1%
O=C(Nc1ccccc1)/C(=C/c1ccccc1)c1ccccc1 | inconclusive [inhibitor, single point] | 
COc1cccc(/C=C2/Sc3ccc(C(=O)NCCCN4CCCC4)cc3NC2=O)c1 | inconclusive [inhibitor, single point] | 
Fc1ccc(Cc2nnc(-c3cccs3)o2)cc1 |  | inactive: 1%
COc1ccc(/C=N/NC(=O)CCn2cnc(-c3ccccc3)c2-c2ccccc2)cc1 | inconclusive [inhibitor, full curve, poor fit] | 
CCCn1c(=O)c(C(=O)NNS(=O)(=O)c2ccc(C)cc2)c(O)c2ccccc21 | inconclusive [inhibitor, single point] | 
O=C(/C=C/c1cccc(Cl)c1)c1ccc([N+](=O)[O-])o1 | inconclusive [inhibitor, partial curve, poor fit] | 
Cc1[nH]c2ccccc2c1C(=O)CN1CCN(C/C=C/c2ccccc2)CC1 | inconclusive [inhibitor, partial curve, poor fit] | 
Cc1ccc(-c2nc3ccc(C)cn3c2Cc2cccc(F)c2)cc1 | inconclusive [inhibitor, single point] | 
COc1cccc(-c2cn3c(n2)sc2cc(C(=O)NCc4cccs4)ccc23)c1 |  | inactive: 2.74%
Cc1ccc(C(C)(C)C)c(OCCCCN2CCCC2)c1 | inconclusive [inhibitor, single point] | 
CC(=O)c1ccc(N(C(=O)Cc2c[nH]c3ccccc23)C(C(=O)NC2CCCCC2)c2cccs2)cc1 (configuration not stated) | inconclusive [inhibitor, single point] | 
Cc1c(CCOC(=O)CC23CC4CC(CC(C)(C4)C2)C3)sc[n+]1CC(=O)c1ccccc1 | inconclusive [inhibitor, single point] | 
O=C(O)CCC(=O)NNc1ncnc2ccccc12 |  | inactive: 2.23%

SMILES | Potency | activity change, negative = inhibition
O=C(Cc1coc2cc3c(cc12)CCC3)NC1CCCCCCC1 | inconclusive [inhibitor, single point] | 
CCCC(=O)NC(c1cccc([N+](=O)[O-])c1)c1ccc2cccnc2c1O (configuration not stated) | inconclusive [inhibitor, full curve, poor fit] | 
CCN(C(=O)COC(=O)C12CC3CC(CC(NC(C)=O)(C3)C1)C2)C1CCCCC1 | inconclusive [inhibitor, single point] | 
Fc1cccc(-c2nc(-c3ccncc3)no2)c1 |  | inactive: 10.2%
COc1ccc2c(c1)C(C)=CC(C)(C)N2S(=O)(=O)c1ccc(C)cc1 | inconclusive [inhibitor, partial curve, poor fit] | 
O=C(Nc1cc(Sc2nc3ccccc3s2)cc([N+](=O)[O-])c1)c1cccc(F)c1F | inconclusive [inhibitor, partial curve, poor fit] | 
COc1cccc(-c2ccc(NC(=O)C3CCCN(Cc4ccco4)C3)cc2)c1 (configuration not stated) | inconclusive [inhibitor, single point] | 
Brc1ccc(CN2C3=NCCCN3c3ccccc32)cc1 | inconclusive [inhibitor, partial curve, poor fit] | 
CC(=O)Nc1sc(C)c(C)c1C(=O)OCC(=O)NCc1ccc(Cl)cc1 | inconclusive [inhibitor, full curve] | 
CCOCCCN(C)C1CCN(C(=O)c2oc3ccccc3c2NC(=O)Cc2cccc([N+](=O)[O-])c2)CC1 | inconclusive [inhibitor, partial curve, poor fit] | 
Cc1ccc(S(=O)(=O)N2[C@H](CC(=O)c3ccc(Cl)c(Cl)c3)OC[C@@H]2C)cc1 | inconclusive [inhibitor, partial curve, poor fit] | 
Oc1cccc(C(Nc2ccccn2)c2ccc3cccnc3c2O)c1Cl (configuration not stated) | inconclusive [inhibitor, single point] | 
COc1ccc(-c2csc(NC(=O)C3CSC4(C)CCC(=O)N34)n2)c(OC)c1 (configuration not stated) | inconclusive [inhibitor, partial curve, poor fit] | 
CCOC(=O)N1CCN(CCC(=O)Nc2ccc(C)c(Br)c2)CC1 | inconclusive [inhibitor, partial curve, poor fit] | 
OC(c1ccc(F)c(F)c1)c1nc(-c2cc(F)cc(F)c2)cs1 (configuration not stated) | inconclusive [inhibitor, partial curve, poor fit] | 
CCn1nc(C)cc1C(=O)Sc1cccc(Br)c1 |  | inactive: -16.1%
COc1cccc(NC(=O)c2ccc(-c3ccccc3[N+](=O)[O-])o2)c1 | inconclusive [inhibitor, single point] | 
CC(NC1CCN(Cc2ccccc2)CC1)c1ccc(F)cc1 (configuration not stated) | inconclusive [inhibitor, partial curve, poor fit] | 
O=C(c1ccc(COc2ccc(Cl)cc2)o1)N1N=C(C(F)F)CC1(O)C(F)F (configuration not stated) | inconclusive [inhibitor, partial curve, poor fit] | 
Cc1ccc(CNC(=O)CCCc2c[nH]c3ccccc23)cc1 | inconclusive [inhibitor, partial curve] | 
